Our source for the binding signal values is article PMC10668032.

The other results are listed elsewhere or left out. At the low end of the ranking the order means little.

This assay has as its target SIX1 homeodomain (reference allele) (UniProt Q15475). Nature of the assay: universal protein binding microarray. The settings on record: Universal all-10-mer PBM (8x60K, AMADID 030236), 300 nM GST-tagged protein, Alexa Fluor 488 anti-GST; buffer, salt, pH and temperature not stated; high values mean tight binding; most listed sequences are background and not binding sites; double strand, one strand shown.
Turning to AGCTGTTA, the binding signal was -0.213 E-score.
For AAACCTAT, the binding signal was determined as 0.0286 E-score.
Turning to CAACGCAC, the binding signal is -0.0235 E-score.
Under AGATTCAA stands -0.134 E-score; under AATCGGCT, 0.0832 E-score; under ACGTCTTC, 0.0167 E-score.
In the case of GAAAAATA, the binding signal is -0.0297 E-score.
Under AGGAGTGA stands -0.0128 E-score; under AAGTACAG, -0.189 E-score; under CTATATTC, 0.0556 E-score.
Under CAGCCCAC stands -0.25 E-score.
Take AAAACAAA: the binding signal was -0.235 E-score.
As for GAGCTACA, the binding signal is -0.126 E-score.
On to CAGGAGGG, for which the binding signal is 0.0468 E-score.
CTATTCTC: the binding signal is -0.00332 E-score.
Take CCATGGCA: the binding signal is -0.127 E-score.
Under ACGATGCT stands -0.0228 E-score; under GGTTGACA, -0.192 E-score; under CCATACTC, 0.146 E-score.
Under TGTAGTAA stands -0.0485 E-score; under CCCACCTA, 0.0935 E-score.
The figure for ATCACTTG is 0.29 E-score; for AGCCACCA it is -0.0935 E-score; for CCTGGAGC it is -0.137 E-score.
Consider CGAATTCA, for which the binding signal is -0.00502 E-score.
Under CCTAGCCC stands -0.103 E-score.
With TAGGAGAA, the binding signal was -0.0721 E-score.
In the case of AGCTTTCG, the binding signal is -0.239 E-score.
GTTTGCGA: the binding signal was -0.04 E-score.
Under ACAAATGC stands -0.0485 E-score.
Under ATGATTAG stands -0.0616 E-score.
For ACCCGGGA, the binding signal was determined as 0.311 E-score.
Under AGGGTTTA stands 0.0547 E-score.
The figure for CAATAGAG is -0.128 E-score; for ACTTCTTA it is -0.0814 E-score.
The figure for CCCCGAAG is 0.128 E-score; for AGCCGTCA it is -0.0998 E-score; for AATCCCGT it is 0.127 E-score.
Turning to CAATGCAG, the binding signal was found to be 0.144 E-score.
The figure for GCACATAC is -0.013 E-score; for TACTTTAA it is -0.0232 E-score; for GAAGTTTA it is -0.149 E-score.
Under AACGCGAC stands -0.265 E-score; under GGTTACGA, -0.0664 E-score; under AATCAACA, 0.0609 E-score.
The figure for CACGTCGG is 0.0775 E-score; for CCGTTACA it is -0.0616 E-score.
Consider CTTTCTGC, for which the binding signal was -0.262 E-score.
The figure for AATTGCCG is -0.241 E-score; for CGAACGAC it is -0.227 E-score.
The figure for AGAGTGTA is 0.223 E-score; for GGTGTTAA it is 0.301 E-score; for GCGTGCCA it is -0.176 E-score.
For AACTCTGC, the binding signal was -0.224 E-score.
The figure for AGGACACG is 0.0726 E-score.
Under GTAAAGAC stands -0.177 E-score; under CCCCCGCA, -0.0974 E-score.
The figure for ACGATTAA is 0.152 E-score.
For ACCCGGCC, the binding signal came out at 0.0806 E-score.
On to CCACCATC, for which the binding signal is -0.0492 E-score.
Under ATGCCTTC stands -0.0169 E-score; under TACGAACA, -0.0254 E-score.
Take CGGGCGGA: the binding signal is 0.0544 E-score.
In the case of CCCTGGAA, the binding signal is -0.0182 E-score.
Under ATGATGCG stands 0.0353 E-score; under AATAGTAT, 0.251 E-score.
Under CCGCGCAG stands -0.0678 E-score; under ACTTTTCG, -0.2 E-score; under ACGGATCT, 0.324 E-score.
Under CAGGGGAG stands 0.136 E-score; under ACGAGTGC, -0.307 E-score; under AACATGGC, -0.2 E-score.
Take CAGGCTGG: the binding signal is -0.0958 E-score.
Turning to AATGAATA, the binding signal is 0.096 E-score.
Consider CCTGAAAA, for which the binding signal was -0.268 E-score.
With GCGATGGA, the binding signal was found to be 0.0296 E-score.
Turning to AAGAATCA, the binding signal is -0.0908 E-score.
As to ACCCGTCA, the binding signal is -0.107 E-score.
For CAAGATCA, the binding signal came out at 0.242 E-score.
With AGCTGCGC, the binding signal is -0.0439 E-score.
Under TCTTGTCA stands -0.158 E-score; under CCGTATCA, 0.486 E-score; under CGTCGAGA, -0.0141 E-score.
For the sequence CCAGGACC, the binding signal was -0.107 E-score.
Consider GTCCCTTA, for which the binding signal was -0.0102 E-score.
Under ATATACAG stands 0.276 E-score; under AAAGACCT, -0.27 E-score.
Regarding CTCAGGGA, the binding signal is 0.112 E-score.
CTCCACAC: the binding signal was -0.0193 E-score.
Regarding ATGGGGTA, the binding signal came to 0.163 E-score.
Consider ACGTTTTC, for which the binding signal was -0.195 E-score.
Under CGTGTCAC stands 0.196 E-score; under ACTACCTG, -0.169 E-score.
CCTGTAGA: the binding signal worked out at 0.00761 E-score.
